In all, about 33,000 sequences were measured (“E-score (-0.5 to 0.5)”: median about -0.021, highest 2% from about 0.32 on). Some of the results follow.
target: T1, Zap1 (UniProt P47043); test: PBM E-score (8-mer binding enrichment) (E-score (-0.5 to 0.5)); higher = stronger / more preferred TF binding; most listed sequences are background and not binding sites; details: protein concentration: 200 nM; construct: GST-full length
T1 sequence: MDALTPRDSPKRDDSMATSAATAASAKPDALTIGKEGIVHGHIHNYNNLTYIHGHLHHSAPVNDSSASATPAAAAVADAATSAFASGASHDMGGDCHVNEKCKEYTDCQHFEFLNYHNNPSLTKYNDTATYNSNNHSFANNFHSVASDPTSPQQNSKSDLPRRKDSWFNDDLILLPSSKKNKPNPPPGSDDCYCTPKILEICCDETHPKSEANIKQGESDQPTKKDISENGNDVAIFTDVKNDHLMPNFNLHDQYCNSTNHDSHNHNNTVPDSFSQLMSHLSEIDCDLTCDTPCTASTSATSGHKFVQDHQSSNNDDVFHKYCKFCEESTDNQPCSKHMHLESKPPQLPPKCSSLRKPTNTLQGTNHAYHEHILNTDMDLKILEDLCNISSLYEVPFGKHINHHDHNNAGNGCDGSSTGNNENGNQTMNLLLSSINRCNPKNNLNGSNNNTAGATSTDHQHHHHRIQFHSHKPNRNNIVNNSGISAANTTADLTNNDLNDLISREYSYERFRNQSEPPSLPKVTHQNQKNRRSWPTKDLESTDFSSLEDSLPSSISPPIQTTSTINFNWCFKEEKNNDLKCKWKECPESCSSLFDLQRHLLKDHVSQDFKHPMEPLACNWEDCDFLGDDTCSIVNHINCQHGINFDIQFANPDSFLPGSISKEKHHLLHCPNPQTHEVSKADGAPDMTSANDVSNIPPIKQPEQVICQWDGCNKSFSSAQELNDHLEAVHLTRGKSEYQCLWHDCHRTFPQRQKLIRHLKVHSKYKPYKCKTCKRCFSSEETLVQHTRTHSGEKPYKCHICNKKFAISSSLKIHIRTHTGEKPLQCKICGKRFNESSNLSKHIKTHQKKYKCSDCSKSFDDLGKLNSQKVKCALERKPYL
Method in brief: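 For each ungapped eight-base word taken together with its reverse complement, the Universal PBM Analysis Suite assigned an E-score. Binding data came from GST-tagged yeast transcription factors, applied at about 100-200 nM, on universal all-10-mer Agilent arrays made double-stranded by primer extension. Fluorescent anti-GST marked bound protein, and scans were normalised with masliner.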

Row | Sequence | PBM E-score
1 | TCGCCCCA | -0.0608
2 | AACTACGA | -0.0625
3 | CCTCCGAC | -0.0986
4 | GGAGCGCC | -0.21
5 | CCACTACC | 0.178
6 | CTAACACA | 0.112
7 | CCCGAGCC | -0.165
8 | ATGTTAGA | -0.079
9 | CTATTATA | 0.131
10 | AACAGGAA | -0.0406
11 | CATCTGTC | -0.365
12 | CCAGTCCA | -0.231
13 | CCCAAATC | 0.0953
14 | CCAGGATC | -0.0208
15 | ATCACTCG | -0.0731
16 | AGCTGCAG | -0.109
17 | CCTAAAGG | 0.274
18 | GTTTTAGA | 0.0545
19 | AGACTGCA | -0.135
20 | AGCAGGTC | 0.0487
21 | ACAATTGA | 0.0986
22 | ACGCAGAA | -0.0213
23 | GTTTAAGA | -0.0185
24 | ACCGCAGC | 0.0473
25 | CTCTCAGC | -0.273

Row | Sequence | PBM E-score
26 | AGTTTGAA | 0.1
27 | CCCGCTCG | -0.152
28 | AGATTAAC | 0.106
29 | ATACCAGG | 0.172
30 | CCACGGGC | -0.123
31 | ATAGTACG | 0.0877
32 | ATTGGACA | 0.146
33 | CAATGATC | -0.00842
34 | AAGCCAAG | -0.0223
35 | CATCGATG | 0.268
36 | CACACGGA | -0.104
37 | GGGCTACC | 0.0784
38 | CTGCGACA | -0.0281
39 | AGCTCTAA | 0.107
40 | CTCAAGAG | -0.0685
41 | AGACACCT | -0.131
42 | CACTAATA | 0.148
43 | AGCATGCA | -0.207
44 | ATATTGTA | 0.133
45 | CCTTACCG | 0.285
46 | ATGTAGAC | -0.184
47 | ATAGTTAG | 0.19
48 | GTATTGTA | 0.028
49 | TAGGATGA | -0.031
50 | CACGTGCG | -0.155

Row | Sequence | PBM E-score
51 | CACCTCCA | 0.0381
52 | TAACAACA | 0.166
53 | CTTGTTGC | -0.0552
54 | ATTAGCCG | -0.0639
55 | ACCATAGC | 0.0843
56 | AAAAATTC | 0.0351
57 | ACACGTTA | 0.0252
58 | AAAAGCAC | -0.105
59 | ATAATCAG | 0.0352
60 | CATGGGTA | 0.312
61 | CGTATGAC | 0.16
62 | GTCTGGTA | 0.146
63 | GGCTCGAA | -0.29
64 | TCTACCCA | 0.042
65 | GATGAAGC | -0.0197
66 | GAGGACCC | 0.0553
67 | CCGCTGTC | -0.125
68 | CACGTAAG | -0.188
69 | AAGCCTGC | -0.182
70 | TATACCGA | 0.0956
71 | CCAGCAAA | 0.0791
72 | ATTGACAA | -0.0303
73 | AAATACTA | 0.217
74 | AAATTTGC | -0.0283
75 | AGGGGCGG | 0.0331

Row | Sequence | PBM E-score
76 | ATAGCTGG | -0.111
77 | ACCTAGCG | -0.134
78 | CAATAGGG | 0.193
79 | CGAGTCCC | -0.0387
80 | AAACCCAC | 0.189
81 | ACATTGTC | 0.0192
82 | ACAATAAT | 0.165
83 | CGACCTCG | 0.131
84 | TCACGAGA | -0.106
85 | CACTCCTG | -0.154
86 | ACTGAAGC | -0.00667
87 | GCACCAGA | -0.0904
88 | AGCCGCAA | -0.0728
89 | CCGCTTTC | -0.0504
90 | GGGCTTCA | -0.177
91 | ATAGTCAG | -0.132
92 | CAAACGCG | -0.0415
93 | AATTAACG | 0.0584
94 | GCGTTAGA | -0.14
95 | ATTACCTC | 0.32
96 | AACGCGAC | -0.146
97 | ATGCAAAG | -0.0952
98 | TGCCGACA | -0.162
99 | TACAAGCA | -0.0534
100 | CCATTGTA | 0.116

Row | Sequence | PBM E-score
101 | AATGCACT | -0.0483
102 | CCCGAAAC | 0.073
103 | ACGTATAT | -0.133
104 | ATCTGGTC | 0.0918
105 | TGATGCAA | 0.0286
106 | GACAAACA | -0.0271
107 | ACCCGGAA | 0.307
108 | CATCCCCG | -0.075
109 | TATTTAGA | 0.168
110 | GTCTAGAA | 0.0226
111 | CTGAAGGC | -0.056
112 | CAAAATTC | 0.0877
113 | ATGATAGC | 0.107
114 | AAAGCCCA | -0.0779
115 | GAAAGTCA | -0.0232
116 | AAGAATTA | -0.00623
117 | GGATGCGA | -0.271
118 | CTTATCAC | -0.0236
119 | AGGAAACT | -0.132
120 | ATTCCATC | 0.00145
121 | ACCCTATA | 0.354
122 | GGCCTTAC | -0.07
123 | AAAGATAA | 0.216
124 | CGGGCGGA | -0.101
125 | CAGGACCG | -0.133

Row | Sequence | PBM E-score
126 | AAATGATC | -0.0669
127 | CGGGCTCC | -0.363
128 | CTACAGGA | 0.0575
129 | GCCAATTA | -0.0384
130 | ACGTTTAG | -0.172
131 | ATGCTTCG | -0.117
132 | CGTGTGTC | -0.201
133 | ACAGGATC | -0.203
134 | CTCACGTC | 0.0181
135 | CGGGACTA | -0.115
136 | AAAATATG | 0.102
137 | GAAACGAA | 0.127
138 | CCACATGA | -0.0552
139 | GAAGTGAC | -0.00157
140 | CCCAATTA | 0.116
141 | CGAAGGGC | -0.193
142 | AAACGAGT | -0.0933
143 | CTCAATGC | -0.168
144 | AGTTTCAA | 0.0343
145 | ATGTTGAA | 0.0888
146 | AACGATGC | -0.245
147 | AGCTCCTC | -0.225
148 | CCGTGCCC | -0.189
149 | CCCCACGA | -0.0491
150 | CATGAGGA | -0.0216

Row | Sequence | PBM E-score
151 | GACATTAA | 0.15
152 | TCCACGAA | 0.111
153 | TACAGCTA | -0.137
154 | CGACTTGC | -0.275
155 | ACAATGAT | 0.118
156 | GTGAGGAA | 0.0674
157 | CGTGAAAC | -0.0245
158 | ACGCAAAT | 0.0769
159 | GTTGCGAA | 0.0158
160 | TCGGGCAA | -0.144
161 | AGACAGCG | -0.161
162 | GTCGGTAA | 0.0399
163 | ATATAAAC | 0.127
164 | CGCACGGC | -0.259
165 | GGGTTTAA | 0.242
166 | AGTCGGCC | -0.233
167 | AATACAAC | 0.113
168 | AATAACCA | 0.445
169 | GAGGAATC | -0.0505
170 | CTTACCAC | 0.14
171 | ATGATTAC | 0.124
172 | ACATTCAG | -0.0921

From the supplement of paper PMC3334620
